Source: PubChem BioAssay AID1963576 (National Center for Advancing Translational Sciences (NCATS), 2024)
About 60 (0.1%) of roughly 46,000 compounds were called active. Not shown: some 3% with an inconclusive outcome. Calls follow the shape of the dose curve; as a rule, active = well fitted inhibition curve with a large enough effect; inconclusive = small, poorly fitted or top-dose-only effect; inactive = no such curve, though single readings can be large or run the other way. This is one part of the list.

experiment: Primary qHTS assay for Inhibitors of ovarian cancer metastasis using an organotypic tumor microenvironment (TME) model.; also: nearly all actives have a fitted effect of over 65% in size;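 as to activity change, negative = inhibition: plate controls were DMSO wells for no effect and tomatine positive control wells for full effect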; settings: SKOV3ip1-GFP adhesion/invasion on 3D omental model, fluorescence; series mostly up to 45.8 µM; activity change, negative = inhibition: at the top concentration
How it was run: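 A 3D layer of primary human omental fibroblasts, mesothelial cells, fibronectin and collagen I, grown 48 hr, received SKOV3ip1-GFP cells in serum-free medium plus compounds at 0.36-46 umol/L. After 2 hr RT and 16 hr 37 C, fixed adherent GFP cells were counted; normalized to DMSO and tomatine.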

SMILES | activity change, negative = inhibition | outcome
COc1cc(NC(=O)C2CCN(S(=O)(=O)Cc3ccccc3)CC2)c(OC)cc1Cl | inactive: -0.377% | –
O=C(c1ccc2c(c1)OCO2)c1cn(Cc2ccc(Cl)cc2)c2ccc(F)cc2c1=O | inactive: 0.355% | –
COc1cccc2c(C)cc3nnc(SCC(=O)Nc4ccc(C)cc4)n3c12 | inactive: -20.7% | –
O=C(Cn1ncc2c1-c1ccccc1OC2)N1CCN(c2ccccc2)CC1 | inactive: 1.97% | –
COCCNC(=O)CN1C(=O)c2cccnc2Sc2ccccc21 | inactive: -12.5% | –
CC(C)(C)OC(=O)N1CCC(c2c(C(=O)N3CCN(c4ccccn4)CC3)cnn2-c2ccc(F)cc2)CC1 | inactive: 4.63% | –
COc1ccc2c(c1)c(=O)c(S(=O)(=O)c1ccc(F)cc1)cn2Cc1ccccc1Cl | inactive: 0.778% | –
Cc1ccc(-c2cn3cccnc3n2)cc1NC(=O)Nc1ccc(F)cc1 | – | inactive
CCN(CC)S(=O)(=O)c1ccc(C(=O)NCCSc2c(-c3ccc(F)cc3)[nH]c3ccccc23)cc1 | inactive: -13.4% | –
CC1CCC(NC(=O)c2ccc(CS(=O)(=O)c3ccc(Cl)cc3)o2)CC1 (stereo not given) | inactive: -8.09% | –
CCCCOc1ccc(C(=O)N2CCCCC2CCN2CCOCC2)cc1 (stereo not given) | inactive: -25.2% | –
Cc1ccc2c(c1)C(=O)[C@]1(O)CCN(c3ccccc3)C1=N2 | inactive: 11.9% | –
CC(C)OCCCNC(=O)CN1C(=O)c2cccnc2Sc2ccccc21 | inactive: 6.45% | –
CCCOc1cccc(C(=O)N(Cc2sccc2C)C2CCS(=O)(=O)C2)c1 (stereo not given) | inactive: -9.42% | –
COc1ccc(CNC(=O)c2cnc(N(C)C)nc2)cc1 | inactive: -3.5% | –
Cc1cc(Cl)ccc1OCC(=O)N(Cc1sccc1C)C1CCS(=O)(=O)C1 (stereo not given) | – | inactive
CCC(=O)Nc1ccc2nc(SCCOc3ccc(C)cc3OC)sc2c1 | inactive: 4.46% | –
CCn1c(=O)cc(OCC(=O)N2CCN(c3ccc(C)cc3)C(C)C2)c2ccccc21 (stereo not given) | inactive: -3.69% | –
CC(=O)c1ccc(NC(=O)CSc2nc(-c3ccc(C)cc3)nc3c2c(=O)n(C)c(=O)n3C)cc1 | inactive: -7.27% | –
COc1ccc2c(Oc3ccc(NC(=O)c4c(C)n(CC(C)(C)O)n(-c5ccccc5)c4=O)nc3)ccnc2c1 | inactive: -10.6% | –
Cc1cccn2cc(-c3cccc(NC(=O)C(C)C)c3)nc12 | inactive: 0.159% | –
COc1c(C)cnc(Cn2cnc3c(Cl)nc(N)nc32)c1C | inactive: 12.7% | –
Cn1c(=O)n(Cc2ccccc2)c(=O)c2c1nc1n2CCN1c1ccccc1 | inactive: -9.34% | –
O=C(Cn1cc(SCc2c(F)cccc2Cl)c2ccccc21)N1CCCCC1 | inactive: 6.33% | –

SMILES | activity change, negative = inhibition | outcome
CCCN1C(=O)c2[nH]nc(-c3ccccc3)c2C1c1cccc(O)c1 (stereo not given) | inactive: 9.34% | –
CCOc1ccc(-c2nnc(SCC(=O)NCc3ccccc3Cl)o2)cc1 | inactive: -8.38% | –
COCc1cc(C)nc2c1C(=O)NC(c1ccc(C)cc1)N2Cc1ccccc1 (stereo not given) | inactive: -4.57% | –
O=C(CSc1cn(CC(=O)N2CCCCC2)c2ccccc12)NCc1ccccc1 | inactive: -8.98% | –
CCN(CC)CCNC(=O)C(=O)NCC(c1ccc2c(c1)OCO2)N1CCOCC1 (stereo not given) | – | inactive
COc1ccc2c(c1)CCc1sc(NC(=O)c3cccc(Br)c3)nc1-2 | inactive: 6.27% | –
COc1ccccc1NC(=O)CSC1=Nc2ccccc2C2=NC(Cc3ccccc3)C(=O)N12 (stereo not given) | inactive: -19% | –
CCOc1ccc(S(=O)(=O)N2CCN(c3cccc(C(F)(F)F)c3)CC2)cc1OCC | inactive: -7.46% | –
Cc1ccc(NC(=O)c2oc3ccccc3c2NC(=O)Cc2ccccc2)cc1 | – | inactive
CCOc1ccc(CNC(=O)C2CCN(c3nnc(-n4c(C)ccc4C)s3)CC2)cc1 | inactive: 14.5% | –
CCc1ccc(NC(=O)Cn2c(=O)n(CCCCC(=O)NCc3ccccc3Cl)c(=O)c3ccccc32)cc1 | – | inactive
Cc1ccc(-c2onc(C)c2C)cc1S(=O)(=O)NCc1ccc(N(C)C)cc1 | inactive: 8.1% | –
CC=CC(=O)N(CC)c1ccccc1C | inactive: 5.4% | –
CCOC(=O)N1CCc2c(sc3c2c(=O)n(Cc2ccccc2)c(=O)n3Cc2cccc(C)c2)C1 | inactive: -1.38% | –
Cc1cc(C)c(S(=O)(=O)NCC(c2ccco2)N2CCOCC2)c(C)c1 (stereo not given) | – | inactive
CCc1nc2c(cnn2-c2ccc(C)cc2)c(=O)n1Cc1ccccc1 | inactive: 22.6% | –
O=C(C1CC1)N1CC[C@@H](Cn2c(-c3ccc(-c4ccc5occc5c4)cc3)nc3cnccc32)C1 | inactive: -9.37% | –
CCn1c(=O)cc(OCC(=O)NCc2ccccc2OC)c2ccccc21 | – | inactive
Cc1ccccc1Nc1nn2c(=O)c3ccc(C(=O)NCc4ccccc4)cc3nc2s1 | – | inactive
C=CCC(CC=C)(CNC(=O)C(=O)Nc1ccc(C)cc1)c1ccccc1 | – | inactive
COc1cccc(Cn2c(=O)n(-c3cccc(Cl)c3)c(=O)c3c4c(sc32)CN(C(C)=O)CC4)c1 | inactive: -0.483% | –
O=C(NCc1ccccc1)C(=O)NCC(c1ccco1)S(=O)(=O)c1ccc(Cl)cc1 (stereo not given) | inactive: -10.8% | –
COc1ccc(NC(=O)c2cc(C)nc3c2c(C)nn3-c2ccc(C)cc2)cc1OC | inactive: -22.2% | –
CC(=O)c1ccc(NC(=O)CCc2c(C)nc3c(c2C)c(=O)n(C)c(=O)n3C)cc1 | inactive: 14.1% | –

SMILES | activity change, negative = inhibition | outcome
CSc1ncc(Cl)c(C(=O)Nc2ccc(S(=O)(=O)Nc3nccc(C)n3)cc2)n1 | inactive: 6.58% | –
Cc1c2cnn(CC(=O)N3CCN(c4ccccc4)CC3)c(=O)c2c(C)n1Cc1ccccc1Cl | inactive: 3.23% | –
CC1=C(C)C(=O)C(C(CCCCCC(=O)O)c2ccccc2)=C(C)C1=O (stereo not given) | inactive: 1.66% | –
COc1ccc(CCNC(=O)c2cc3n(n2)CCCN(Cc2ccc(C)cc2)C3=O)cc1OC | inactive: 7.61% | –
Cc1cc(C)cc(-n2cnc3cc(C(=O)NC4CCCCCC4)ccc32)c1 | inactive: 0.87% | –
Cc1ccc(CCNC(=O)c2ccc3[nH]c(C)c(C)c3c2)cc1 | inactive: 8.75% | –
O=S(=O)(NCCS(=O)(=O)N1CCN(c2cccc(Cl)c2)CC1)c1ccc(F)cc1 | inactive: -5.06% | –
CCOc1ccc(C2=NC(c3cccs3)=Nc3ccc(CC)cc3N2)cc1OCC | inactive: 9.63% | –
Cc1[nH]c2ccc(Br)cc2c1CCNC(=O)c1cc2ccccc2oc1=O | inactive: -6.4% | –
COC(=O)CN1C(=O)C(C)(C)c2cc(S(=O)(=O)Nc3ccc(Br)cc3F)ccc21 | inactive: -12.9% | –
CCN(CC)c1ccc(NC(=O)CN2CCN(c3ccccc3F)CC2)cc1 | – | inactive
CCn1cc2nc(SCC(=O)Nc3ccc(C)cc3)n(Cc3ccc(C)cc3)c(=O)c2n1 | – | inactive
O=C(NCc1ccccc1F)c1sc2ncccc2c1-n1cccc1 | inactive: 4.75% | –
CC(=O)c1cccc(-n2c(=O)c3c4c(sc3n(Cc3cccc(C)c3)c2=O)CN(C(C)=O)CC4)c1 | inactive: 3.29% | –
Cc1cccc(NC(=O)CN2C(=O)C(c3ccccc3)=NC23CCC(C)CC3)c1 (stereo not given) | inactive: 1.81% | –
Cc1cc(C)n(CCc2nc3c4ccccc4nc(N4CCN(c5cccc(C)c5C)CC4)n3n2)n1 | inactive: 0.205% | –
COc1cc(OC)cc(C(=O)Nc2cc3c(cc2N2CCOCC2)n(C)c(=O)n3C)c1 | inactive: 2.35% | –
COc1ccc(-n2nc3cc(C)c(NC(=O)c4ccc(-c5ccc(Br)cc5)o4)cc3n2)cc1 | inactive: 6.58% | –
CC(=O)N1CCCc2cc(S(=O)(=O)N3CCCC(C(=O)Nc4ccc(C)cc4C)C3)ccc21 (stereo not given) | inactive: 5.73% | –
CCc1ccc(S(=O)(=O)c2cn(C)c3cc(N4CCCC4)c(F)cc3c2=O)cc1 | inactive: 17.4% | –
COc1ccc(C(=O)Nc2ccc3c(c2)CCCN3S(=O)(=O)c2ccc(C)cc2)c(OC)c1 | inactive: 5.37% | –
CCOc1ccc(C(=O)NCCc2csc(-c3cccc(F)c3)n2)cc1OCC | inactive: -3.62% | –
CCOC(=O)CC(NC(=O)CCc1c(C)nc2ncnn2c1C)c1ccc(C)cc1 (stereo not given) | inactive: 15.8% | –
O=C(NCCC1=CCCCC1)C1CCN(C(=O)N2CCOc3ccc(Cl)cc32)CC1 | inactive: -8.98% | –

SMILES | activity change, negative = inhibition | outcome
Cc1cn2c(=O)c(S(=O)(=O)Nc3ccc(F)cc3F)c(C)nc2s1 | inactive: 5.96% | –
COc1cccc(NC(=O)C2CCCN(S(=O)(=O)c3cccc4nonc34)C2)c1 (stereo not given) | inactive: 11.4% | –
Cc1cc(C)cc(C(=O)NCC(c2ccc(N(C)C)cc2)N2CCCC2)c1 (stereo not given) | – | inactive
CN(Cc1ccccc1)c1ccc(-c2nc(-c3ccncc3)no2)cc1[N+](=O)[O-] | inactive: -8.08% | –
O=C(NCc1ccco1)c1ccc2c(c1)N(Cc1ccc(Cl)cc1)C(=O)c1ccccc1S2(=O)=O | inactive: -28.6% | –
COC(=O)c1nnn(-c2ccc(Br)cc2)c1C(=O)OC | inactive: 1.08% | –
O=C(NCc1ccc(Cl)cc1)c1ccc(Cn2c(=O)c3cccn3c3cccnc32)cc1 | – | inactive
Oc1ccccc1Nc1nc2ccccc2n2nnnc12 | – | inactive
COc1ccc(-c2nnc(SCC(=O)Nc3ccc(C)c(C)c3)s2)cc1 | inactive: 8.49% | –
CCOc1ccc(N2C(=O)c3[nH]nc(-c4ccc(OC)cc4)c3C2c2cccs2)cc1 (stereo not given) | inactive: -23.4% | –
COCCCNC(=O)c1ccc2c(c1)N(Cc1ccccc1F)C(=O)c1ccccc1S2=O (stereo not given) | inactive: -22.6% | –
Cc1cnc(Nc2ccc(OCCN3CCCC3)cc2)nc1Nc1cccc(S(=O)(=O)NC(C)(C)C)c1 | inactive: 32.5% | –
O=C1CCc2cc(S(=O)(=O)NC(C(=O)Nc3cccc(F)c3)c3ccccc3)ccc2N1 (stereo not given) | inactive: 7.84% | –
Cc1ccc(C)c(Nc2nnc(-c3ccc(C)c(S(=O)(=O)NCC4CCCO4)c3)c3ccccc23)c1 (stereo not given) | inactive: -21.8% | –
O=C(Cn1c(=O)n(Cc2nc(-c3ccccc3)no2)c(=O)c2ccccc21)Nc1cccc(Cl)c1 | inactive: -6.28% | –
COc1ccc(S(=O)(=O)N2CCN(Cc3nc4ccc(C)cc4o3)CC2)cc1 | – | inactive
COC(=O)c1cc(NC(=O)c2cc3sccc3n2Cc2ccc(Cl)cc2)cc(C(=O)OC)c1 | inactive: 6.15% | –
CCOc1ccc(NC(=O)CSc2oc(-c3ccccc3)nc2S(=O)(=O)c2ccc(Cl)cc2)cc1 | inactive: -0.835% | –
COc1ccc(C(=O)/C=C/c2cn(CC(O)CN3CCc4ccccc43)c3ccccc23)cc1 (stereo not given) | inactive: -13.6% | –
COc1cccc(NC(=O)c2oc3ccccc3c2NC(=O)C2CCCCC2)c1 | inactive: -3.57% | –
CCc1ccccc1NC(=O)CCCN1C(=O)CCn2nc(-c3cn(C)c4ccccc34)cc21 | – | inactive
Cc1cc(N2CCC(C(=O)N(CC(C)C)CC(C)C)CC2)n2nc(C)c(-c3ccc(Cl)cc3)c2n1 | – | inactive
O=C1NC(NS(=O)(=O)c2ccccc2)(C(F)(F)F)C(=O)N1c1ccc(F)cc1 (stereo not given) | inactive: 6.55% | –
